Laboratory results published in the supplement of paper PMC11316812.

Assays:
[1] = tested on: hTERT-HMEC; assay: percentage of EdU-negative (G0-arrested) nuclei per well, 72 h; higher = more G0 arrest; conditions: reference: sequence is the full UniProt precursor, the tested protein was the secreted form or ectodomain
[2] = tested on: MCF7; assay: percentage of EdU-negative (G0-arrested) nuclei per well, 72 h; reference: sequence is the full UniProt precursor, the tested protein was the secreted form or ectodomain; higher = more G0 arrest
[3] = protein concentration 0.0225 µM
[4] = protein concentration 0.00885714 µM
[5] = protein concentration 0.0885714 µM
[6] = protein concentration 0.0177143 µM
[7] = protein concentration 0.177143 µM
[8] = protein concentration 0.01075 µM
[9] = protein concentration 0.1075 µM
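Note: secreted proteins added to cultured cells, EdU pulse at the end, nuclei found by Hoechst imaging, EdU status from nuclear versus surrounding ring intensity ratio, PBS as neutral control.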

MPHLMERMVGSGLLWLALVSCILTQASAVQRGYGNPIEASSYGLDLDCGAPGTPEAHVCFDPCQNYTLLDEPFRSTENSAGSQGCDKNMSGWYRFVGEGGVRMSETCVQVHRCQTDAPMWLNGTHPALGDGITNHTACAHWSGNCCFWKTEVLVKACPGGYHVYRLEGTPWCNLRYCTVPRDPSTVEDKCEKACRPEEECLALNSTWGCFCRQDLNSSDVHSLQPQLDCGPREIKVKVDKCLLGGLGLGEEVIAYLRDPNCSSILQTEERNWVSVTSPVQASACRNILERNQTHAIYKNTLSLVNDFIIRDTILNINFQCAYPLDMKVSLQAALQPIVSSLNVSVDGNGEFIVRMALFQDQNYTNPYEGDAVELSVESVLYVGAILEQGDTSRFNLVLRNCYATPTEDKADLVKYFIIRNSCSNQRDSTIHVEENGQSSESRFSVQMFMFAGHYDLVFLHCEIHLCDSLNEQCQPSCSRSQVRSEVPAIDLARVLDLGPITRRGAQSPGVMNGTPSTAGFLVAWPMVLLTVLLAWLF
percentage of EdU-negative [1, 3]: 4.37 ± 0.21% | percentage of EdU-negative ([1]; protein concentration 0.225 µM): 4.96 ± 0.27% | percentage of EdU-negative [2, 3]: 26 ± 3.7% | percentage of EdU-negative ([2]; protein concentration 0.225 µM): 26.29 ± 0.21%

MLPQIPFLLLVSLNLVHGVFYAERYQMPTGIKGPLPNTKTQFFIPYTIKSKGIAVRGEQGTPGPPGPAGPRGHPGPSGPPGKPGYGSPGLQGEPGLPGPPGPSAVGKPGVPGLPGKPGERGPYGPKGDVGPAGLPGPRGPPGPPGIPGPAGISVPGKPGQQGPTGAPGPRGFPGEKGAPGVPGMNGQKGEMGYGAPGRPGERGLPGPQGPTGPSGPPGVGKRGENGVPGQPGIKGDRGFPGEMGPIGPPGPQGPPGERGPEGIGKPGAAGAPGQPGIPGTKGLPGAPGIAGPPGPPGFGKPGLPGLKGERGPAGLPGGPGAKGEQGPAGLPGKPGLTGPPGNMGPQGPKGIPGSHGLPGPKGETGPAGPAGYPGAKGERGSPGSDGKPGYPGKPGLDGPKGNPGLPGPKGDPGVGGPPGLPGPVGPAGAKGMPGHNGEAGPRGAPGIPGTRGPIGPPGIPGFPGSKGDPGSPGPPGPAGIATKGLNGPTGPPGPPGPRGHSGEPGLPGPPGPPGPPGQAVMPEGFIKAGQRPSLSGTPLVSANQGVTGMPVSAFTVILSKAYPAIGTPIPFDKILYNRQQHYDPRTGIFTCQIPGIYYFSYHVHVKGTHVWVGLYKNGTPVMYTYDEYTKGYLDQASGSAIIDLTENDQVWLQLPNAESNGLYSSEYVHSSFSGFLVAPM
percentage of EdU-negative [1, 4]: 5.3 ± 0.21% | percentage of EdU-negative [1, 5]: 5.39 ± 0.11% | percentage of EdU-negative [2, 4]: 22.7 ± 3.6% | percentage of EdU-negative [2, 5]: 25.2 ± 0.46%

MKSLPILLLLCVAVCSAYPLDGAARGEDTSMNLVQKYLENYYDLKKDVKQFVRRKDSGPVVKKIREMQKFLGLEVTGKLDSDTLEVMRKPRCGVPDVGHFRTFPGIPKWRKTHLTYRIVNYTPDLPKDAVDSAVEKALKVWEEVTPLTFSRLYEGEADIMISFAVREHGDFYPFDGPGNVLAHAYAPGPGINGDAHFDDDEQWTKDTTGTNLFLVAAHEIGHSLGLFHSANTEALMYPLYHSLTDLTRFRLSQDDINGIQSLYGPPPDSPETPLVPTEPVPPEPGTPANCDPALSFDAVSTLRGEILIFKDRHFWRKSLRKLEPELHLISSFWPSLPSGVDAAYEVTSKDLVFIFKGNQFWAIRGNEVRAGYPRGIHTLGFPPTVRKIDAAISDKEKNKTYFFVEDKYWRFDEKRNSMEPGFPKQIAEDFPGIDSKIDAVFEEFGFFYFFTGSSQLEFDPNAKKVTHTLKSNSWLNC
percentage of EdU-negative [1, 6]: 5.24 ± 0.45% | percentage of EdU-negative [1, 7]: 5.87 ± 0.59% | percentage of EdU-negative [2, 6]: 27.88 ± 0.12% | percentage of EdU-negative [2, 7]: 30.6 ± 0.81%

MRVLLHLPALLASLILLQAAASTTRAQTTRTSAISDTVSQAKVQVNKAFLDSRTRLKTAMSSETPTSRQLSEYLKHAKGRTRTAIRNGQVWEESLKRLRQKASLTNVTDPSLDLTSLSLEVGCGAPAPVVRCDPCSPYRTITGDCNNRRKPALGAANRALARWLPAEYEDGLSLPFGWTPGKTRNGFPLPLAREVSNKIVGYLNEEGVLDQNRSLLFMQWGQIVDHDLDFAPDTELGSSEYSKAQCDEYCIQGDNCFPIMFPPNDPKAGTQGKCMPFFRAGFVCPTPPYKSLAREQINALTSFLDASFVYSSEPSLASRLRNLSSPLGLMAVNQEVSDHGLPYLPYDSKKPSPCEFINTTARVPCFLAGDSRASEHILLATSHTLFLREHNRLARELKRLNPQWDGEKLYQEARKILGAFVQIITFRDYLPILLGDHMQKWIPPYQGYSESVDPRISNVFTFAFRFGHLEVPSSMFRLDENYQPWGPEPELPLHTLFFNTWRMVKDGGIDPLVRGLLAKKSKLMKQNKMMTGELRNKLFQPTHRIHGFDLAAINTQRCRDHGQPGYNSWRAFCDLSQPQTLEELNTVLKSKMLAKKLLGLYGTPDNIDIWIGAIAEPLVERGRVGPLLACLLGKQFQQIRDGDRFWWENPGVFTNEQKDSLQKMSFSRLVCDNTRITKVPRDPFWANSYPYDFVDCSAIDKLDLSPWASVKN
percentage of EdU-negative [1, 8]: 5.54 ± 0.3% | percentage of EdU-negative [1, 9]: 5.74 ± 0.31% | percentage of EdU-negative [2, 8]: 27.7 ± 0.48% | percentage of EdU-negative [2, 9]: 26.7 ± 0.36%

± gives the standard deviation of the averaged measurements.
